Assay results reported in article PMC12136788.
Some of the results follow.

T1: UNK ZnF1-3 (human, UniProt Q9C0B0 31-174)
T1 sequence: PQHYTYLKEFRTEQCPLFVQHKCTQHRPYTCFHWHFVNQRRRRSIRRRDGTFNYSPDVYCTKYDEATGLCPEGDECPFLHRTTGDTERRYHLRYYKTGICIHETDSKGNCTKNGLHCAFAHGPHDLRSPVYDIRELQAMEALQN

B1: chr10:57943292:57943293:+_ENSMUSG00000003226_ENSMUST00000003310|mus_hu|motif|central (ssRNA)
RNA: GGGAGUUCUACAGUCCGACGAUCCAAAGACCCAGUGGCUGAACUGUUGCCGAAUGCAAAUGGUUUUGAUUUUUCACGGCGGAAAAUGCUUUUAACAGACUCUGAACCAAAUACAAACUUUGGAGGAGAAACCACUGCUUUUGGCAACAGAGGAUUGAGCAUCA
B2: chr8:100899844:100899845:-_ENSG00000164919_ENST00000517682|hu_hu|FALSE|FALSE (ssRNA)
RNA: GGGAGUUCUACAGUCCGACGAUCUUGAUCAGCCACACGAAACUUAUACAAAGCUGCAACCCCCAGGGAUAGCACGAAUGCUACAGCCAUAUGAUUUCGCAGACGCCUGGCCAGAAGGCCACGCAUCCGAGGUUUUGGCAAAACCAACAGAGGAUUGAGCAUCA
B3: chr14:66974463:66974464:+_ENSMUSG00000022044_ENSMUST00000074523|mus_hu|mus_mus_mus_hu_False|1_78 (ssRNA)
RNA: GGGAGUUCUACAGUCCGACGAUCUUGUAGGACGACUUAUUCAGGGGAUCGGCCAGGAAGCAAGAGCAGAACAAGGACACCAGCGGGAGCUCCUUCAUCUUCUCUUUGUAGGCAGCAAGGGUCAUGUUUCUGGGAUCCUGGUGGCAACAGAGGAUUGAGCAUCA
B4: chr5:143131892:143131893:+_ENSMUSG00000029578_ENSMUST00000036872|mus_mus|FALSE|FALSE (ssRNA)
RNA: GGGAGUUCUACAGUCCGACGAUCCAGGAUAGUGUUGGAGUAGCUGUAGUUGCAUAUCUCAGUUCCCUUCUUAAAAUGGCAAACCUUCAGCUUCCUGGGAGCUUUGAGGCUGACAAUGGCCACCAAGCUGCUUGAGAACAAUCUCAACAGAGGAUUGAGCAUCA
B5: chr14:76904568:76904569:+_ENSMUSG00000022010_ENSMUST00000022587|mus_mus|FALSE|FALSE (ssRNA)
RNA: GGGAGUUCUACAGUCCGACGAUCGUUUUCGGUUCCCAGCAAAGACGACAAGAAAGAAAUGGAAAAAUGUCUCAGUUGGUAAACUCCUAGAUCCAUCGCCACUGGUCUACACCAUUGGGAUUUCAUGCAAUUGCAGCCAAAUUACAACAGAGGAUUGAGCAUCA
B6: chr14:63765801:63765802:-_ENSMUSG00000021273_ENSMUST00000054963|mus_mus|FALSE|FALSE (ssRNA)
RNA: GGGAGUUCUACAGUCCGACGAUCCUGCUUGGUUUUGCUUGAUGAUGGGUCUGAGUUGGGGAUCCGGUGAUAAAUCUCUUCUAUGUACUGGUAUAUGAUAGCUUUGACGGCAGGCAUGUUGGUGGCAUCCAUCAUGAGGGUGACCAACAGAGGAUUGAGCAUCA
B7: 49353820_49354314_1221_CDS_ENSMUSG00000039542_ENSMUST00000166811|mouse|control|control (ssRNA)
RNA: GGGAGUUCUACAGUCCGACGAUCACAGGUGAUGUUCACCUGGUUCCCUUCCCAAGUGUACACAGCCACAGGGCCCUGGAGCUUGGGAGCAUAUUGAACUUCGAGGUACAUGGACUGGGAAUCCUGGCCGAUGGUGUUGCUGGCCAACAGAGGAUUGAGCAUCA
B8: chr1:29069144:29069145:+_ENSG00000198492_ENST00000541996|perfect_dup|FALSE|FALSE (ssRNA)
RNA: GGGAGUUCUACAGUCCGACGAUCGAGAAGUCAAUCCCACUGGGAAAAAAAUUAAAACCAUGCUGACCAAGAAAUGGAGUGCUACCUAGGGCUCCUGGUUGCCCAAACAUUGCAUCUGGUAGAAAGUGGGGCUCUCCGUUGCUCCAACAGAGGAUUGAGCAUCA
B9: chr4:110384322:110384323:+_ENSG00000138802_ENST00000265175|hu_hu|FALSE|FALSE (ssRNA)
RNA: GGGAGUUCUACAGUCCGACGAUCGUAUGGUUGGGAGGCACUCGUAUGCAAAUGGGAUGCUGACGAUGCAGCACCUUGGAAAGAUCCUAGAGUGGAUCCCACAAUAUGAGGGGCAGGAGGACCCCUGCUGUACAACUGCUGUGCCAACAGAGGAUUGAGCAUCA
B10: 46246592_46254616_4918_CDS_ENSG00000189079_ENST00000334344|human|control|control (ssRNA)
RNA: GGGAGUUCUACAGUCCGACGAUCUUGUACAGCUGGUGAAGGUGGCAUAGGAGUGUUCUGCGGGACCACAUUCUGUACAUAUGUUGGUGGAUGCUGUUGCUUUUGCUGAACAGCACUUUCUAUUGCUACUUUAGCUACAGUGCUCAACAGAGGAUUGAGCAUCA
B11: chr10:80924034:80924035:-_ENSMUSG00000034818_ENSMUST00000118763|mus_hu|FALSE|FALSE (ssRNA)
RNA: GGGAGUUCUACAGUCCGACGAUCAAGUGAAGGGAUCGCAGAGAGCAGCUUUGGAUUUUGCUUCUGGUUGGCAGUUCCUGAAGGUGCGUUCUGUGCAGGUAAAUACUCCCAAAUCUGUGUGUGCUGACCCGGGAGAAGGUGAAACAACAGAGGAUUGAGCAUCA
B12: chr18:56902939:56902940:+_ENSMUSG00000024590_ENSMUST00000025486|mus_mus|FALSE|FALSE (ssRNA)
RNA: GGGAGUUCUACAGUCCGACGAUCUGUGACGCCAGCAUUUGCAGCCCACACUGUGACAGUCUGGCCAGCCUUCAGCACAUAUCUUGAGGUAUAUUUGUAACUGACUGAUGUGUCUCCAAUUUUUCUGAUCAUCUCCCAGCCUCCCAACAGAGGAUUGAGCAUCA
B13: chr22:32879901:32879902:+_ENSG00000100225_ENST00000397426|hu_mus|hu_hu_hu_mus_False|8_8 (ssRNA)
RNA: GGGAGUUCUACAGUCCGACGAUCCUCUUCCAUACUCAUGGCAUCCUGAAUUGACUCAGCUUCAACAUUUUGACUAGGCCCUUCCAUACUGUCAUCAGUCCAGGCAUCAAAUGGGGUGGCCUGUCCUUGGAAUGAAUCAGUCCCCAACAGAGGAUUGAGCAUCA
B14: chr5:145543945:145543946:-_ENSG00000133706_ENST00000545646|hu_hu|hu_hu_hu_mus_True|38_48 (ssRNA)
RNA: GGGAGUUCUACAGUCCGACGAUCCUGAACGGCCAGUGGUGGGAAAUAAUCAAGCCAGUGCUCUGCUUCAGAAAACUUCACUAUGUCUUCAUCAGACAGGCCAAGGGAUUUCAUAAUGUCCCACUGGUACUUAGAAGAUCCUGCCAACAGAGGAUUGAGCAUCA
B15: chr16:94664741:94664742:+_ENSMUSG00000040785_ENSMUST00000117648|mus_hu|mus_mus_mus_hu_False|58_88 (ssRNA)
RNA: GGGAGUUCUACAGUCCGACGAUCUGGUACUGAUCUUGGUAGCUGAUACUCAGAAGAAAGGCUGGCCAAGGGUGUAUAAAUGCUAGUGUACUGGGGCAAACCUGGUAACACGUUUAUGUAUGCUGGCGGUGUCUGGGUGAUAUCCAACAGAGGAUUGAGCAUCA
B16: chr16:94914985:94914986:+_ENSMUSG00000022897_ENSMUST00000023614|mus_mus|FALSE|FALSE (ssRNA)
RNA: GGGAGUUCUACAGUCCGACGAUCAUUGUGAGGCAAAAAAGCAGUCACAUAAAAUUCUGCAUUUUAAAAUGUUCAGGGUGAACAGAAGACGUCUUUGUGCAGAAGAAAUGGUGGAGACACCACGUGCCGAGAAAAAGCCAAAGACAACAGAGGAUUGAGCAUCA
B17: chr8:95500983:95500984:-_ENSG00000164944_ENST00000437199|hu_hu|hu_hu_hu_mus_True|48_58 (ssRNA)
RNA: GGGAGUUCUACAGUCCGACGAUCAGAACACAUCUAUCGAGUAAAGGACCGUACAUGACGGCCUCUACCACUGCCUCCCACUAACAAACUUUCCUCUGAGCCUCCACUGCCGCUAUUUGUACUAGCCCAGGACGGUCCCAGGCCCAACAGAGGAUUGAGCAUCA
B18: chr4:76721835:76721836:+_ENSG00000138768_ENST00000264904|hu_mus|hu_hu_hu_mus_True|38_38 (ssRNA)
RNA: GGGAGUUCUACAGUCCGACGAUCGUUUGGCUGGGGUUUCUGAGACGCUCUGGAAUAUAACUCAUGUUUGCUAAUAAAUCCUAGUUUCUCUAUGAAAUCUCUUUGCCCAAUCCUCUUCUCUAUUAGUUGCUUUAGUUUCUCUUUCAACAGAGGAUUGAGCAUCA
B19: 53611299_53612085_5349_CDS_ENSG00000086758_ENST00000262854|human|control|control (ssRNA)
RNA: GGGAGUUCUACAGUCCGACGAUCAUUAACCUGCACCAUUGUAGUGAAUUGGACCGUGUAUCUUCUUCGGCCUGCAGUGAAUCGCACGCUUGUCUCUCCAGAUUUCCAGGCAGAAUCAAUAGUGCUAUUGUUGCUUGCACUGUACAACAGAGGAUUGAGCAUCA
B20: chr11:87033893:87033894:+_ENSMUSG00000018548_ENSMUST00000041282|mus_mus|FALSE|FALSE (ssRNA)
RNA: GGGAGUUCUACAGUCCGACGAUCCGUCUACAAAGAGAAUUCUAGGCCAGCCAGGGCUACAUAGUGAGACCCUGCCACAAAAAGAAAGAACGGGAAGGAAAAAGAAGGCAAGCCAGGGUUAGAGAGGUGGUGGCUGGGUUCUCACAACAGAGGAUUGAGCAUCA
B21: chr11:87793471:87793472:-_ENSMUSG00000020483_ENSMUST00000020775|mus_mus|mus_mus_mus_hu_False|28_28 (ssRNA)
RNA: GGGAGUUCUACAGUCCGACGAUCUGGACUUGAAAAUAAAAGAAUAAGCUGGAUCCCCCACCCCCCCACAUUGUCAACCCUACACGAGAGUUUUGAAGGCGACUCAUGAAUCAGCAGAGCUCAAACGGCAAUGACCACCCCACCCAACAGAGGAUUGAGCAUCA
B22: chr5:151042278:151042279:-_ENSG00000113140_ENST00000231061|hu_hu|motif|central (ssRNA)
RNA: GGGAGUUCUACAGUCCGACGAUCAUGACAAUCAUCCAAAUGUGAGGAAAGAACAACCGAUUCACCAACUCCACUUUUUCGGUUUUACAACUUUCUACAUCUCACUCUUGAUUUUGGCCUUCCUGGCUGAAACAGCCUGGCAGUCAACAGAGGAUUGAGCAUCA

molecular target: T1, UNK ZnF1-3; experiment: nsRBNS (natural sequence RNA bind-n-seq); RBNS binding buffer (assumed for nsRBNS): 25 mM Tris pH 7.5, 150 mM KCl, 3 mM MgCl2, 0.01% Triton X-100, 500 ug/ml BSA, 20 U/ml SUPERase-In, 4 C; UNK is unkempt and MSI1 is Musashi-1; names of the RNAs are library labels; protein concentration not given here; high values mean tight binding

| Binder | binding signal [enrichment R] |
| --- | --- |
| B1 | 1.11 |
| B2 | 1.52 |
| B3 | 2.02 |
| B4 | 1.07 |
| B5 | 1.26 |
| B6 | 1.4 |
| B7 | 0.646 |
| B8 | 1.18 |
| B9 | 0.834 |
| B10 | 0.512 |
| B11 | 1.31 |
| B12 | 0.889 |
| B13 | 1.11 |
| B14 | 0.89 |
| B15 | 1.09 |
| B16 | 1.78 |
| B17 | 1.14 |
| B18 | 0.364 |
| B19 | 0.621 |
| B20 | 1.88 |
| B21 | 1.82 |
| B22 | 0.914 |
